Data: the supplement of paper PMC8728848
This is one part of the list.

Key:
Assay in all cases: glycan array binding signal (z-score within array); higher = stronger binding
Conditions in all cases: glycan notation: IUPAC condensed, linker removed
[1] = biological target: Gal(b1-4)GlcNAc(b1-6)GalNAc
Method in brief: (§1)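 From the Consortium for Functional Glycomics database, 3228 arrays were curated, keeping only those whose protein sequence was available. Binding is given as a within-array Z-score averaged across arrays sharing a protein sequence and across linkers. Negative Z-scores can be read as non-binding.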

[2] = biological target: Gal(b1-4)GlcNAc(b1-6)[Gal(b1-3)]GalNAc
Method in brief: as §1

[3] = biological target: Gal(b1-4)GlcNAc(b1-6)[Gal(b1-4)GlcNAc(b1-3)]GalNAc
Method in brief: as §1

Gal(b1-4)GlcNAc6P = biological target: Gal(b1-4)GlcNAc6P
Method in brief: as §1

Gal(b1-6)Gal = biological target: Gal(b1-6)Gal
Method in brief: as §1

Gal3S(b1-3)GalNAc = biological target: Gal3S(b1-3)GalNAc
Method in brief: as §1

Gal3S(b1-3)GlcNAc = biological target: Gal3S(b1-3)GlcNAc
Method in brief: as §1

[4] = biological target: Gal3S(b1-3)[Fuc(a1-4)]GlcNAc
Method in brief: as §1

Gal3S(b1-4)Glc = biological target: Gal3S(b1-4)Glc
Method in brief: as §1

Gal3S(b1-4)Glc6S = biological target: Gal3S(b1-4)Glc6S
Method in brief: as §1

Gal3S(b1-4)GlcNAc = biological target: Gal3S(b1-4)GlcNAc
Method in brief: as §1

[5] = biological target: Gal3S(b1-4)[Fuc(a1-3)]Glc6S
Method in brief: as §1

[6] = biological target: Gal3S(b1-4)[Fuc(a1-3)]GlcNAc
Method in brief: as §1

[7] = biological target: Gal3S(b1-4)[Fuc(a1-3)]GlcNAc6S
Method in brief: as §1

Gal3S4S(b1-4)GlcNAc = biological target: Gal3S4S(b1-4)GlcNAc
Method in brief: as §1

Gal3S6S(b1-4)GlcNAc = biological target: Gal3S6S(b1-4)GlcNAc
Method in brief: as §1

Gal3S6S(b1-4)GlcNAc6S = biological target: Gal3S6S(b1-4)GlcNAc6S
Method in brief: as §1

Gal4S(b1-4)GlcNAc = biological target: Gal4S(b1-4)GlcNAc
Method in brief: as §1

Gal4S6S(b1-4)GlcNAc = biological target: Gal4S6S(b1-4)GlcNAc
Method in brief: as §1

Gal6P(b1-4)GlcNAc = biological target: Gal6P(b1-4)GlcNAc
Method in brief: as §1

Gal6S(b1-3)GlcNAc = biological target: Gal6S(b1-3)GlcNAc
Method in brief: as §1

Gal6S(b1-3)GlcNAc6S = biological target: Gal6S(b1-3)GlcNAc6S
Method in brief: as §1

Gal6S(b1-4)Glc = biological target: Gal6S(b1-4)Glc
Method in brief: as §1

B1: rEtpA (Escherichia coli) (protein)
chain: MNRIYKLKFDKRRNELVVVSEITTGVGNAKATGSVEGEKSPRRGVRAMALSLLSGMMIMAHPAMSANLPTGGQIVAGSGSIQTPSGNQMNIHQNSQNMVANWNSFDIGKGNTVQFDQPSSSAVALNRVVGGGESQIMGNLKANGQVFLVNPNGVLFGEGASVSTSGFVASTRDIKNDDFMNRRYTFSGGQKAGAAIVNQGELTTNAGGYIVLAADRVSNSGTIRTPGGKTVLAASERITLQLDNGGLMSVQVTGDVVNALVENRGLVSARDGQVYLTALGRGMLMNTVLNVSGVVEASGMHRQDGNIVLDGGDSGVVHLSGTLQADNASGQGGKVVVQGKNILLDKGSNITATGGQGGGEVYVGGGWQGKDSNIRNADKVVMQGGARIDVSATQQGNGGTAVLWSDSYTNFHGQISAKGGETGGNGGRVETSSHGNLQAFGTVSASAKKGKAGNWLLDSADITIVNGSNVSKTETTQSPPHTQFAPTAAGSAVSNTSINNRLNNGTSVTILTHRTRTGTAQGGNITVNAAINKSNGSDVNLTLQAGGNITVNNSITSTEGKLNVNLSGARTSNGSITISNNANITTNGGDITVGTTNTSNRVNISINNTTLNASNGNIQLTGTGTDSGILFAGNNRLTASNIALTGNSTSGNAINLTGTATLNATNNITLTGSSTSGNAINLKGNNTLTASNITLTGESTSGNAINLTDTTGTTTLNATNNITMQGTRVQIKHSNITAGNFALNATVAGSEISNTTLTATNNINLAAKTNSASSGVYLKDARITSTNGSITANGTATANGKATHLDGNVTLNASNGRIKLTGNGHGSASGILFAGNNRLTASNIALTGNSTSGNAINLTGTATLNATNDITLTGSSTSGNAINLTGTATLNATNNITLTGSSTSGNAINLKGNNTLTASNITLTGESTSGNAINLTDTTGTTTLNATNNITMQGTRVQIKHSNITAGNFALNATVAGSEISNTTLTATNNINLAAKTNSASSGVYLKDARITSTNGSITANGTATANGKATHLDGNVTLNASNGRIKLTGNGHGSASGILFAGNNRLTASNIALTGNSTSGNAINLTGTATLNATNDITLTGSSTSGNAINLTGTATLNATNNITLTGSSTSGNAINLKGNNTLTASNITLTGESTSGNAINLTDTTGTTTLNATNNITMQGTRVQIKHSNITAGNFALNATVAGSEISNTTLTATNNINLAAKTNSASSGVYLKDARITSTNGSITANGTATANGKATHLDGNVTLNASNGRIKLTGNGHGSASGILFAGNNRLTASNIALTGNSTSGNAINLTGTATLNATNDITLTGSSTSGNAINLTGTATLNATNNITLTGSSTSGNAINLKGNNTLTASNITLTGESTSGNAINLTDTTGTTTLNATNNITMQGTRVQIKHSNITAGNFALNATVAGSEISNTTLTATNNINLAAKTNSASSGVYLKDARITSTNGSITTNGTATANGKATHLDGNVTLNASNGRIKLTGNGHGSASGILFAGNNRLTASNIALTGNSTSGNAINLTGTATLNATNDITLTGSSTSGNAINLTGTATLNATNNITLTGSSTSGNAINLKGNNTLTASNITLTGESTSGNAINLTDTTGTTTLNATNNITMQGTRVQIKHSNITAGNFALNATVAGSEISNTTLTATNNINLAAKTNSASSGVYLKDARITSTNGSITANGTAPANDNATYLDGNVTLNASNGSIKLTGNGNGSTSGILFAGNNTLTASNITLTGNSEVYWQKLGPEQKLISEEDLNSAVDHHHHHH
glycan array binding signal (z-score) [1]: -0.21 | glycan array binding signal (z-score) [2]: -0.386 | glycan array binding signal (z-score) [3]: -0.27 | glycan array binding signal (z-score) (Gal(b1-4)GlcNAc6P): -0.385 | glycan array binding signal (z-score) (Gal(b1-6)Gal): 0.048 | glycan array binding signal (z-score) (Gal3S(b1-3)GalNAc): 0.07 | glycan array binding signal (z-score) (Gal3S(b1-3)GlcNAc): 0.314 | glycan array binding signal (z-score) [4]: -0.228 | glycan array binding signal (z-score) (Gal3S(b1-4)Glc): 0.184 | glycan array binding signal (z-score) (Gal3S(b1-4)Glc6S): 0.356 | glycan array binding signal (z-score) (Gal3S(b1-4)GlcNAc): -0.045 | glycan array binding signal (z-score) [5]: 0.805 | glycan array binding signal (z-score) [6]: -0.202 | glycan array binding signal (z-score) [7]: 0.771 | glycan array binding signal (z-score) (Gal3S4S(b1-4)GlcNAc): -0.041 | glycan array binding signal (z-score) (Gal3S6S(b1-4)GlcNAc): -0.028 | glycan array binding signal (z-score) (Gal3S6S(b1-4)GlcNAc6S): 0.444 | glycan array binding signal (z-score) (Gal4S(b1-4)GlcNAc): 1.38 | glycan array binding signal (z-score) (Gal4S6S(b1-4)GlcNAc): -0.189 | glycan array binding signal (z-score) (Gal6P(b1-4)GlcNAc): -0.372 | glycan array binding signal (z-score) (Gal6S(b1-3)GlcNAc): 0.534 | glycan array binding signal (z-score) (Gal6S(b1-3)GlcNAc6S): -0.365 | glycan array binding signal (z-score) (Gal6S(b1-4)Glc): 1.63
